In all, about 43,000 compounds went through this assay and about 200 (0.47%) were called active. The inconclusive results got no clear call from the source; some entries with a clear call stand among them for comparison. The call rests on the fitted dose curve; in most records, active means well fitted cell-killing curve with a large enough effect; inconclusive means small, poorly fitted or top-dose-only effect, or effect the other way; inactive means flat fitted curve, though single readings scatter. Potencies of inconclusive entries are doubtful fits and often do not repeat.
Assay: Cell viability qHTS assay in S16 Pmp22-F2sN cells; further: nearly all actives have a fitted effect of over 65% in size
Settings: S16 Pmp22-F2sN Schwann cells (luciferase reporters placed in the Pmp22 gene) viability, CellTiter-Glo, 24 h; activity change, negative = cytotoxicity: at 57.5 µM (top of the series)
In short: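 Luminescence from CellTiter-Glo, read by CCD camera after a 15 min room-temperature incubation, served as the viability signal. Reporter Schwann cells (S16 Pmp22-F2sN) had been treated with pin-transferred compounds for 24 h at 37C.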
For `COC(=O)c1c(NC(=O)c2c(OC)cccc2OC)sc2c1CCCC2`, the Potency was inconclusive: 39.8 µM [cytotoxic, single point].
With `O=C(NCCSc1c(-c2ccc(Cl)cc2)[nH]c2ccccc12)c1ccc(S(=O)(=O)N2CCOCC2)cc1` the Potency was inconclusive: 31.6 µM [cytotoxic, partial curve, poor fit].
For `CCOC(=O)c1ccc2ncc(C(=O)OCC)c(NCCc3ccc(OC)c(OC)c3)c2c1`, the Potency was inconclusive: 39.8 µM [cytotoxic, single point].
In the case of `CC(C)Oc1ccc(CNC(=O)C2CCN(C(=O)N3CCOc4ccc(Cl)cc43)CC2)cc1`, the Potency is reported as inconclusive: 31.6 µM [cytotoxic, single point].
For `Cc1cccc(NC(=O)CSc2nc3ccccc3c3nc(CCn4cncc4C)nn23)c1`, the Potency was inconclusive: 39.8 µM [cytotoxic, single point].
In the case of `O=c1cc2nc(-c3ccccc3)nc(SCc3cccc(Br)c3)n2[nH]1`, the Potency is reported as inconclusive: 1.58 µM [cytotoxic, full curve, poor fit].
In the case of `O=C(NCc1ccc2c(c1)CCN2C(=O)c1ccncc1)c1ccccc1Br`, the Potency is reported as inconclusive: 39.8 µM [cytotoxic, single point].
With `COc1ccc(OC)c(NC(=O)Cn2ccn(-c3ccc(F)cc3)c(=O)c2=O)c1` the Potency was “inactive”.
For `Cc1noc2ncnc(N3CCCC(C(=O)NCCC(C)C)C3)c12` (stereo not given), the Potency was inconclusive: 0.398 µM [cytotoxic, full curve, poor fit].
In the case of `Cc1ccc(NC(=O)C(Cc2ccccc2)NS(=O)(=O)c2ccc3c(c2)c(=O)n(C)c(=O)n3C)cc1` (stereo not given), the Potency is reported as inconclusive: 22.4 µM [rising, partial curve, poor fit].
With `Cn1cc(C(=O)O)c(=O)c2cc(S(=O)(=O)N3CCCCC3)ccc21` the Potency was inconclusive: 28.2 µM [cytotoxic, partial curve, poor fit].
With `CCC(C)NC(=O)C1CCN(C(=O)c2cc3sccc3n2Cc2ccc(Cl)cc2)CC1` (stereo not given) the Potency was inconclusive: 3.16 µM [cytotoxic, partial curve].
In the case of `COc1ccc(Nc2oc(-c3ccc(COc4ccc(OC)cc4)o3)nc2C#N)cc1`, the Potency is reported as inconclusive: 31.6 µM [cytotoxic, single point].
With `CC(C)(C)C1CCc2nc(NC(=O)COc3ccc(F)cc3)sc2C1` (stereo not given) the Potency was inconclusive: 2.82 µM [rising, full curve, poor fit].
With `CC1CCN(S(=O)(=O)c2ccc3c(c2)N(CC(=O)N2CCN(c4ccc(Cl)cc4)CC2)C(=O)CO3)CC1` the Potency was inconclusive: 3.55 µM [rising, full curve, poor fit].
In the case of `Cc1ccc(C)c(N2CCN(C(=O)c3cc(S(=O)(=O)N4CCCCC4)cn3C)CC2)c1`, the Potency is reported as inconclusive: 0.126 µM [rising, full curve, poor fit].
For `O=C(c1ccc(CSc2nc3ccncc3n2Cc2ccccc2F)cc1)N1CCCCCC1`, the Potency was inconclusive: 35.5 µM [cytotoxic, single point].
In the case of `Cc1ccc(S(=O)(=O)c2nc(-c3ccccc3)oc2N2CCCCCC2)cc1`, the Potency is reported as inconclusive: 39.8 µM [cytotoxic, single point].
In the case of `Cc1ccccc1CSc1nc(-c2ccccc2)nc2c1Cc1c(CO)cnc(C)c1O2`, the Potency is reported as inconclusive: 35.5 µM [cytotoxic, single point].
For `COc1ccc(/C=C/c2onc(C)c2S(=O)(=O)N2CCC(C(=O)N3CCC(C)CC3)CC2)cc1`, the Potency was inconclusive: 39.8 µM [cytotoxic, single point].
In the case of `CCc1ccccc1NC(=O)CCCN1C(=O)COc2ccc(C)cc21`, the Potency is reported as “inactive”.
In the case of `CC(=O)Nc1cccc(-c2nnc(SCC(=O)c3cc([N+](=O)[O-])ccc3Br)o2)c1`, the Potency is reported as inconclusive: 39.8 µM [rising, single point].
In the case of `COc1cccc(C(=O)NC(c2ccc(Cl)cc2)c2cc(Cl)c3cccnc3c2O)c1` (stereo not given), the Potency is reported as active: 5.01 µM.
In the case of `COc1ccc(F)cc1NC(=O)C1CCN(c2nc(-c3ccc(OC)c(OC)c3)no2)CC1`, the activity change, negative = cytotoxicity is reported as inconclusive: 30.8%.
With `COc1ccc(-c2noc(C(C)NC(=O)c3ccco3)n2)cc1` (stereo not given) the Potency was inconclusive: 25.1 µM [cytotoxic, partial curve, poor fit].
In the case of `Cc1cccc2c1-c1sc(C(=O)NCCCN3CCN(c4cccc(Cl)c4)CC3)cc1CO2`, the Potency is reported as inconclusive: 39.8 µM [cytotoxic, single point].
For `Cc1ccc(C)c(NC(=O)Cn2c(=O)n(Cc3ccco3)c(=O)c3ccc(C(=O)NC4CCCC4)cc32)c1`, the Potency was “inactive”.
For `CCN(CC)c1ccc(NC(=O)c2sc3nc(-c4ccccc4)cn3c2C)cc1`, the Potency was inconclusive: 14.1 µM [cytotoxic, partial curve, poor fit].
In the case of `COc1ccc(CCNC(=O)Cn2c(-c3cccs3)cc3cc(F)ccc32)cc1OC`, the Potency is reported as “inactive”.
With `Cc1ccc(NC(=O)Cn2c(=O)nc(-c3ccccc3F)c3cc(Cl)ccc32)c(Br)c1` the Potency was inconclusive: 25.1 µM [cytotoxic, single point].
In the case of `COc1cc(C(=O)NCCSc2c(-c3ccccc3)[nH]c3ccccc23)cc(OC)c1OC`, the Potency is reported as inconclusive: 25.1 µM [cytotoxic, single point].
With `CCC(=O)Nc1cccc(-c2cn3c(C)csc3n2)c1` the Potency was inconclusive: 39.8 µM [rising, single point].
For `CCOc1ccccc1Nc1sc(C(=O)c2ccc(Cl)cc2)c(N)c1C#N`, the Potency was “inactive”.
In the case of `CCc1ccc2c(c1)c(=O)c(C(=O)c1ccc(C)cc1)cn2CC(=O)Nc1ccc2c(c1)OCCO2`, the Potency is reported as “inactive”.
With `Cc1ccccc1NC(=O)Cn1c(=O)n(Cc2ccco2)c(=O)c2cccnc21` the Potency was “inactive”.
For `CN1C(=O)Cc2cc(S(=O)(=O)CCC(=O)Nc3ccc(Cl)c(C(F)(F)F)c3)ccc21`, the Potency was “inactive”.
With `CCOC(=O)C1CCCN(c2c(C(=O)c3ccc(OCC)cc3)cnc3ccccc23)C1` (stereo not given) the Potency was “inactive”.
In the case of `CC(C)CN(CCCNC(=O)c1cc(-c2cccs2)nc2ccccc12)CC(C)C`, the Potency is reported as inconclusive: 31.6 µM [cytotoxic, single point].
With `O=C(CCC1N=C2c3ccccc3N=C(SCc3cccc(F)c3)N2C1=O)NCCc1ccccc1` (stereo not given) the Potency was inconclusive: 25.1 µM [cytotoxic, partial curve, poor fit].
With `O=C(OCc1cc(=O)n2nc(-c3cccs3)sc2n1)c1ccccc1` the Potency was inconclusive: 4.47 µM [cytotoxic, single point].
In the case of `Cc1ccc(CNC(=O)CN2C(=O)CSc3ccc(S(=O)(=O)N(C)C)cc32)cc1`, the Potency is reported as inconclusive: 28.2 µM [cytotoxic, single point].
For `CCCCNS(=O)(=O)c1ccc(N2CCCCS2(=O)=O)cc1`, the Potency was inconclusive: 39.8 µM [cytotoxic, partial curve, poor fit].
With `CCc1ccc(N(CC)C(=O)CCn2cnc3onc(-c4ccc(F)cc4)c3c2=O)cc1` the Potency was inconclusive: 31.6 µM [cytotoxic, single point].
For `Cc1cc(C)c(NS(=O)(=O)c2ccc3c(c2)CC(C)N3C(=O)C2CCC2)c(C)c1` (stereo not given), the Potency was inconclusive: 39.8 µM [cytotoxic, partial curve, poor fit].
For `COc1ccccc1NC(=O)c1c(C)cc(C)nc1SCC(=O)Nc1ccc(C)c(C)c1`, the Potency was inconclusive: 39.8 µM [cytotoxic, single point].
With `O=C(Cc1ccccc1)N(Cc1cccnc1)c1nc2c(Cl)cccc2s1` the Potency was inconclusive: 22.4 µM [cytotoxic, single point].
With `CCc1nnc(SC(CC)C(=O)Nc2ccc(OC)c(Cl)c2)c2cc3occc3n12` (stereo not given) the Potency was inconclusive: 31.6 µM [cytotoxic, partial curve, poor fit].
With `COc1ccc(NC(=O)c2cc3c(=O)n(Cc4cccs4)ccc3nc2C)cc1` the Potency was inconclusive: 0.158 µM [rising, full curve, poor fit].
For `COc1ccc(-n2c(C)nnc2SCc2nc(-c3ccc(OC)c(OC)c3)no2)cc1`, the Potency was “inactive”.
For `O=C(Cn1nc(-c2ccccc2)c2c(c1=O)CCCC2)Nc1ccc(F)c(Cl)c1`, the Potency was inconclusive: 39.8 µM [cytotoxic, single point].
For `CCn1c(=O)c2cc(C(=O)NC3CCC(C)CC3)sc2c2ccccc21` (stereo not given), the Potency was inconclusive: 7.94 µM [rising, single point].
In the case of `Cc1ccccc1NS(=O)(=O)c1ccc2[nH]cc(C(=O)NC3CCCCC3)c(=O)c2c1`, the Potency is reported as inconclusive: 28.2 µM [cytotoxic, single point].
In the case of `Cc1ccc(C)c(N2CCN(C(=O)c3ccc(Nc4nc5ccccc5n5nnnc45)cc3)CC2)c1`, the Potency is reported as “inactive”.
For `CCc1ccc(NC(=O)c2ccc3nc(C(C)C)oc3c2)cc1`, the Potency was inconclusive: 31.6 µM [cytotoxic, single point].
For `Cc1ccccc1NC(=O)Cn1c(=O)n(Cc2ccc3c(c2)OCO3)c(=O)c2ccc(C(=O)NC3CCCCC3)cc21`, the Potency was inconclusive: 0.141 µM [rising, full curve, poor fit].
With `COc1ccccc1CNC(=O)c1cc2cccc3c2n1CC(C)S3` (stereo not given) the Potency was inconclusive: 35.5 µM [cytotoxic, partial curve, poor fit].
With `O=C(Nc1ccc(F)cc1F)c1ccc2c(c1)CCN2S(=O)(=O)c1ccc(Cl)cc1` the Potency was inconclusive: 28.2 µM [cytotoxic, single point].
With `COc1ccc2oc(=O)c(C(=O)Nc3cccc(C(=O)O)c3)cc2c1` the Potency was “inactive”.
With `COc1ccc(OC)c(CCNC(=O)Cn2ccc3cc(S(=O)(=O)N4CCCCC4)ccc32)c1` the Potency was inconclusive: 35.5 µM [cytotoxic, single point].
With `COc1ccccc1-c1cc2nc(C)c(CCC(=O)NCCc3ccc(SC)cc3)c(C)n2n1` the Potency was inconclusive: 39.8 µM [cytotoxic, single point].
On the % scale 0 is the no-effect control and ±100 the full control effect; potency means the concentration at half of the fitted maximal effect; tags describe the fitted curve by direction and shape.
